{"source": "paper PMC4336329", "about": "(PLoS ONE, 2015)", "note": "About 14,000 (4.5%) of roughly 310,000 compounds showed an effect of 50% or more. The effect is printed as a negative number. The list shows a part of the results.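 Note: peak tail current of the secondary pulse compared with the same well before compound.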", "data": [{"target": "human ether-à-go-go-related gene (hERG) potassium channel (human, UniProt Q12809)", "sequence (Q12809 whole entry, looked up)": "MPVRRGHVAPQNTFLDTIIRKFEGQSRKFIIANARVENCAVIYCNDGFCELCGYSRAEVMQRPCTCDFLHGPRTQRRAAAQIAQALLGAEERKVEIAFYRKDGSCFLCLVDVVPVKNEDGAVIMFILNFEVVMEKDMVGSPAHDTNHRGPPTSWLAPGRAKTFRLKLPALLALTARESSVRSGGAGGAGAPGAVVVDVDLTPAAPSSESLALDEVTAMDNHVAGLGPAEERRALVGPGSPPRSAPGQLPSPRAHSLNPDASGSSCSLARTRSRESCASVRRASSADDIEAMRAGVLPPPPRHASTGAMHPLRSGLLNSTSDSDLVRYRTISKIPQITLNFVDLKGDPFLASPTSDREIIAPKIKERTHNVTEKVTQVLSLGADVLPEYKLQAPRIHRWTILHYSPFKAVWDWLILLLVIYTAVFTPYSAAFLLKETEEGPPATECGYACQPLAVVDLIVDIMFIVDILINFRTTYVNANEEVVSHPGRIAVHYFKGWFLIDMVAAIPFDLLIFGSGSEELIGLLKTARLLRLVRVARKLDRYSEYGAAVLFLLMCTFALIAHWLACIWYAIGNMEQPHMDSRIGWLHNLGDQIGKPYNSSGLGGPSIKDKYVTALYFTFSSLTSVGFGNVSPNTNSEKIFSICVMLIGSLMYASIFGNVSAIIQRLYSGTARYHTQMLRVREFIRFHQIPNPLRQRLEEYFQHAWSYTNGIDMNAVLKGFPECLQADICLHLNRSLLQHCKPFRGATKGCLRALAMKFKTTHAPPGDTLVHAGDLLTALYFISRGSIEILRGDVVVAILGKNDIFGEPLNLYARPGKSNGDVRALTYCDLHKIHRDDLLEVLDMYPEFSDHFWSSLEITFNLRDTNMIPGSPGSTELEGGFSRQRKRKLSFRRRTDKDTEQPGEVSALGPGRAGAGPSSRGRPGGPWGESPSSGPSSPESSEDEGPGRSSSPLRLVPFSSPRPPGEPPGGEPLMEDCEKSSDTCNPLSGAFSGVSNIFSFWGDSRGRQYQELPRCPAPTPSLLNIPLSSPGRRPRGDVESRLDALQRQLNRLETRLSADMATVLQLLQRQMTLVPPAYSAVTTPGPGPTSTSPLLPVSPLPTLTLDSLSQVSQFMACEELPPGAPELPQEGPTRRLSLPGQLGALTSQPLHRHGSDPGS", "assay": "primary screen, population patch clamp on CHO cells stably expressing hERG", "units": {"hERG current change (%, negative = inhibition) at 10uM": "%"}, "values": [{"smiles": "CCOCCCNC(=O)c1cc(C)nn1-c1ccccc1", "hERG current change (%, negative = inhibition) at 10uM": 11}, {"smiles": "O=C(c1ccccc1C(=O)N1CCN(c2ccccc2F)CC1)N1CCN(c2ccccc2F)CC1", "hERG current change (%, negative = inhibition) at 10uM": -31}, {"smiles": "Nc1nnc(SCC(=O)OCC(=O)Nc2ccccc2)s1", "hERG current change (%, negative = inhibition) at 10uM": 6.65}, {"smiles": "Cn1cc(SCC(=O)Nc2ccc3c(c2)OCCO3)c2ccccc21", "hERG current change (%, negative = inhibition) at 10uM": -19.3}, {"smiles": "O=C(Cn1c(-c2ccccc2)c[n+]2ccsc12)c1ccc([N+](=O)[O-])cc1.[Br-]", "hERG current change (%, negative = inhibition) at 10uM": -49}, {"smiles": "O=C(CN1CCN(S(=O)(=O)c2ccc(Cl)s2)CC1)N1CCOCC1", "hERG current change (%, negative = inhibition) at 10uM": 14.4}, {"smiles": "CCN(CC(=O)Nc1ccc(Cl)c(S(=O)(=O)N(C)C)c1)CC(=O)NC(C)C", "hERG current change (%, negative = inhibition) at 10uM": 8.55}, {"smiles": "Cc1ccc(S(=O)(=O)Nc2ccc3c(c2)nc2n3CCN(Cc3ccccc3)C2)cc1", "hERG current change (%, negative = inhibition) at 10uM": -18.8}, {"smiles": "COC(=O)c1cc(-c2c(C)oc3cc(O)ccc3c2=O)c(C)o1", "hERG current change (%, negative = inhibition) at 10uM": -3.71}, {"smiles": "CC(=O)N1c2ccc(S(=O)(=O)N3CCC(C(=O)NCCc4ccc(Cl)cc4)CC3)cc2CC1C", "note": "(centres unmarked)", "hERG current change (%, negative = inhibition) at 10uM": 14.3}, {"smiles": "Cc1cc(C(F)(F)F)nn1CCCNC(=O)c1cnccn1", "hERG current change (%, negative = inhibition) at 10uM": -18.7}, {"smiles": "CSc1nc(Sc2ccc(Cl)cc2)c2ccccc2n1", "hERG current change (%, negative = inhibition) at 10uM": 22.2}, {"smiles": "Cc1cccc(NC(=S)NC2CC3CCCC(C2)N3CC(C)C)c1", "note": "(centres unmarked)", "hERG current change (%, negative = inhibition) at 10uM": -41.5}, {"smiles": "Cc1ccc(C(=O)Nc2ccc(C(F)(F)F)n(C)c2=O)cc1", "hERG current change (%, negative = inhibition) at 10uM": 23.4}, {"smiles": "O=C(CCN1CCCCO1)N1CCCC(Nc2cccc(F)c2)C1", "note": "(centres unmarked)", "hERG current change (%, negative = inhibition) at 10uM": 14}, {"smiles": "Cc1ccccc1OCC(=O)NNC(=S)NC(=O)c1ccco1", "hERG current change (%, negative = inhibition) at 10uM": 11.3}, {"smiles": "Cc1ccc(CN2CC3CC(C2)c2cccc(=O)n2C3)cc1", "note": "(centres unmarked)", "hERG current change (%, negative = inhibition) at 10uM": -5.29}, {"smiles": "Cc1ccc(S(N)(=O)=O)cc1NC(=O)/C=C/c1cccs1", "hERG current change (%, negative = inhibition) at 10uM": -9.76}, {"smiles": "CC(=O)N1c2ccc(S(=O)(=O)NCCC(=O)N(C)Cc3ccccc3)cc2CC1C", "note": "(centres unmarked)", "hERG current change (%, negative = inhibition) at 10uM": 0.141}, {"smiles": "CCC(=O)Nc1cccc(NC(=O)c2ccc3c(c2)OCO3)c1", "hERG current change (%, negative = inhibition) at 10uM": -10.5}, {"smiles": "Cc1cccc(-c2noc(CN(C(=O)c3ccc(Br)o3)C(C)C)n2)c1", "hERG current change (%, negative = inhibition) at 10uM": 4.16}, {"smiles": "Cc1cc(C[n+]2ccccc2)c2nsnc2c1.[Cl-]", "hERG current change (%, negative = inhibition) at 10uM": 17.3}, {"smiles": "CSc1nc(C)cc(C)c1C#N", "hERG current change (%, negative = inhibition) at 10uM": -3.61}, {"smiles": "CCc1nc2sc3c(c2c(=O)n1N)CC(C)(C)OC3", "hERG current change (%, negative = inhibition) at 10uM": 7.31}, {"smiles": "Cn1nc(OCCOc2ccccc2)ccc1=O", "hERG current change (%, negative = inhibition) at 10uM": -4.45}, {"smiles": "COc1ccc(-c2cc(C(=O)Nc3cccc(S(=O)(=O)NCc4ccco4)c3)c3ccccc3n2)cc1OC", "hERG current change (%, negative = inhibition) at 10uM": 22.5}, {"smiles": "O=C(CCNS(=O)(=O)c1ccccc1)NNC(=O)COc1ccc(Cl)cc1", "hERG current change (%, negative = inhibition) at 10uM": 2.29}, {"smiles": "Cc1ccc(SCCC(=O)NCCSCc2ccco2)cc1", "hERG current change (%, negative = inhibition) at 10uM": 14.5}, {"smiles": "CN(C)CCNC(=O)C1CC(=O)N(c2ccc(F)c(Cl)c2)C1", "note": "(centres unmarked)", "hERG current change (%, negative = inhibition) at 10uM": -11.2}, {"smiles": "COc1ccccc1CN=C1NC(=O)C(CC(=O)Nc2ccc(C(C)=O)cc2)S1", "note": "(centres unmarked)", "hERG current change (%, negative = inhibition) at 10uM": -6.17}, {"smiles": "COc1ccccc1CNC(=O)C1CCC(CNC(=O)[C@@H]2Cc3ccccc3CN2)CC1", "note": "(some centres unmarked)", "hERG current change (%, negative = inhibition) at 10uM": 2.23}, {"smiles": "CCCCn1c(SCC(=O)Nc2cc(C)on2)nc2cc(S(N)(=O)=O)ccc21", "hERG current change (%, negative = inhibition) at 10uM": -20.1}, {"smiles": "N/C(=N\\OC(=O)c1ccc2c(c1)OCO2)c1cccnc1", "hERG current change (%, negative = inhibition) at 10uM": -2.28}, {"smiles": "CCOc1cc(C(=O)CCC(=O)OCC(=O)NC(=O)NCC(C)C)ccc1O", "hERG current change (%, negative = inhibition) at 10uM": -20.3}, {"smiles": "CCOc1ccccc1C(=O)NC1CC2CCCC(C1)N2Cc1ccc(C)cc1", "note": "(centres unmarked)", "hERG current change (%, negative = inhibition) at 10uM": -65.2}, {"smiles": "COC(=O)CSc1nc2nc(C)cc(C)n2n1", "hERG current change (%, negative = inhibition) at 10uM": 4.29}, {"smiles": "COc1ccc(/C=C2\\C(=O)NC(=O)N(Cc3ccccc3)C2=O)c(OC)c1OC", "hERG current change (%, negative = inhibition) at 10uM": 3.19}, {"smiles": "O=C(CN1CCc2ccccc2C1)Nc1ccc(F)cc1", "hERG current change (%, negative = inhibition) at 10uM": 8.61}, {"smiles": "O=C(O)c1c(NC(=O)N2CCOCC2)sc2c1CCCC2", "hERG current change (%, negative = inhibition) at 10uM": 29.1}, {"smiles": "O=C(O)C[C@H]1c2cc(F)ccc2S(=O)(=O)N1C1CCCCC1", "hERG current change (%, negative = inhibition) at 10uM": 10.2}, {"smiles": "CC(C)(C)OC(=O)N/N=C/c1cccn1-c1ccc([N+](=O)[O-])cc1", "hERG current change (%, negative = inhibition) at 10uM": -12.4}, {"smiles": "Cc1ccc(-n2nnnc2SCC(=O)NC(C(=O)O)(c2ccccc2)c2ccccc2)cc1C", "hERG current change (%, negative = inhibition) at 10uM": 29.8}, {"smiles": "COC(=O)/C(C(C)=O)=C(/C=C/C=C/N(C)C)N(C)C", "hERG current change (%, negative = inhibition) at 10uM": 13.3}, {"smiles": "COc1ccc(-c2ccc(C)cc2)cc1[C@H]1[C@@H]2C=CCC[C@@]2(C)C(=O)N1Cc1ccccc1", "hERG current change (%, negative = inhibition) at 10uM": 10.6}]}]}
